# According to the supplement of paper PMC10037445:
# In all, about 2,900 compounds were measured (“IRF Lucia reporter activity, fold change vs agonist alone”: median about 0.9, highest 2% from about 2.8 on). This is one part of the list.
# Columns and labels:
# RAW-Dual [1] = assay: IRF Lucia reporter activity, fold change vs agonist alone; cytotoxicity flag (confluency mask): not cytotoxic; higher = enhanced IRF activity
# Summary of the method: (§1)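 Cytotoxic wells were those whose IncuCyte confluency was below 70% of agonist controls in both mask sets. The cells were RAW-Dual macrophages at 50,000 cells/well in DMEM on 384-well plates, dosed with 50 nL of library stock by pin tool, stimulated with a PRR agonist 1 h later, and kept at 37 °C, 5% CO2 for 20 hours. IRF and NF-κB reporter activity, as fold change over agonist-alone wells, came from supernatant read by QuantiLuc luminescence and QuantiBlue absorbance, respectively.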
# RAW-Dual [2] = assay: IRF Lucia reporter activity, fold change vs agonist alone; higher = enhanced IRF activity; settings: agonist: MPLA (TLR4) […]
# Summary of the method: as §1
# RAW-Dual [3] = assay: IRF Lucia reporter activity, fold change vs agonist alone; cytotoxicity flag (confluency mask): cytotoxic (confluency <70% of control); higher = enhanced IRF activity
# Summary of the method: as §1
# [4] = agonist: 3'3'-cGAMP (STING) 10 ug/mL
# [5] = library stock concentration (final ~1000-fold dilution): 10 mM, cytotoxicity flag (confluency mask): not cytotoxic
# [6] = library stock concentration (final ~1000-fold dilution): 10 mM, cytotoxicity flag (confluency mask): cytotoxic (confluency <70% of control)
smiles,measurement,setting,value
CC12CC(O)C3CC1(O[C@@H]1O[C@H](CO)[C@@H](O)[C@H](O)[C@H]1O)C3(COC(=O)c1ccccc1)C(=O)O2 (stereo not given in full) (library stock concentration (final ~1000-fold dilution): 10 mM),IRF Lucia reporter activity,RAW-Dual [1]; [4],0.973
same,IRF Lucia reporter activity,RAW-Dual [1]; agonist: LPS (TLR4) 0.1 ug/mL,0.864
COC1/C=C\C=C(/C)C(=O)NC2=CC(=O)C(NCCN(C)C)=C(CC(C)CC(OC)C(O)C(C)/C=C(\C)C1OC(N)=O)C2=O.Cl (stereo not given) (library stock concentration (final ~1000-fold dilution): 10 mM),IRF Lucia reporter activity,RAW-Dual [1]; [4],0.0852
same,IRF Lucia reporter activity,RAW-Dual [1]; agonist: LPS (TLR4) 0.1 ug/mL,0.273
COC1/C=C\C=C(/C)C(=O)NC2=CC(=O)C(NCCN(C)C)=C(CC(C)CC(OC)C(O)C(C)/C=C(\C)C1OC(N)=O)C2=O.Cl (stereo not given),IRF Lucia reporter activity,RAW-Dual [2]; [5],0.306
CCCCCCCCCCCCCCCCCC[N+](C)(C)C,IRF Lucia reporter activity,RAW-Dual [2]; [6],0.342
CCCCCCCCCCCCCCCCCC[N+](C)(C)C (library stock concentration (final ~1000-fold dilution): 10 mM),IRF Lucia reporter activity,RAW-Dual [3]; [4],0.119
same,IRF Lucia reporter activity,RAW-Dual [3]; agonist: LPS (TLR4) 0.1 ug/mL,0.28
Cn1cc(-c2ccc3nnc(C(F)(F)c4ccc5ncccc5c4)n3n2)cn1 (library stock concentration (final ~1000-fold dilution): 10 mM),IRF Lucia reporter activity,RAW-Dual [1]; [4],0.756
same,IRF Lucia reporter activity,RAW-Dual [1]; agonist: LPS (TLR4) 0.1 ug/mL,0.756
Cn1cc(-c2ccc3nnc(C(F)(F)c4ccc5ncccc5c4)n3n2)cn1,IRF Lucia reporter activity,RAW-Dual [2]; [5],0.92
c1ccc2[nH]c(-c3cscn3)nc2c1 (library stock concentration (final ~1000-fold dilution): 10 mM),IRF Lucia reporter activity,RAW-Dual [1]; [4],0.972
same,IRF Lucia reporter activity,RAW-Dual [1]; agonist: LPS (TLR4) 0.1 ug/mL,1.01
c1ccc2[nH]c(-c3cscn3)nc2c1,IRF Lucia reporter activity,RAW-Dual [2]; [5],0.726
Cl.Nc1ccn(C2OC(CO)C(O)C2(F)F)c(=O)n1 (stereo not given) (library stock concentration (final ~1000-fold dilution): 10 mM water),IRF Lucia reporter activity,RAW-Dual [3]; [4],1.81
same,IRF Lucia reporter activity,RAW-Dual [3]; agonist: LPS (TLR4) 0.1 ug/mL,1.01
Cl.Nc1ccn(C2OC(CO)C(O)C2(F)F)c(=O)n1 (stereo not given),IRF Lucia reporter activity,"RAW-Dual [2]; library stock concentration (final ~1000-fold dilution): 10 mM water, cytotoxicity flag (confluency mask): cytotoxic (confluency <70% of control)",1.22
CC(NC(CCc1ccccc1)C(=O)O)C(=O)N1CCCC1C(=O)O.O.O (stereo not given) (library stock concentration (final ~1000-fold dilution): 10 mM),IRF Lucia reporter activity,RAW-Dual [1]; [4],1.07
same,IRF Lucia reporter activity,RAW-Dual [1]; agonist: LPS (TLR4) 0.1 ug/mL,0.922
CC(NC(CCc1ccccc1)C(=O)O)C(=O)N1CCCC1C(=O)O.O.O (stereo not given),IRF Lucia reporter activity,RAW-Dual [2]; [5],0.952
CCC(CC)CC1(C(=O)Nc2ccccc2SC(=O)C(C)C)CCCCC1,IRF Lucia reporter activity,RAW-Dual [2]; [5],1.14
CCC(CC)CC1(C(=O)Nc2ccccc2SC(=O)C(C)C)CCCCC1 (library stock concentration (final ~1000-fold dilution): 10 mM),IRF Lucia reporter activity,RAW-Dual [1]; [4],0.755
same,IRF Lucia reporter activity,RAW-Dual [1]; agonist: LPS (TLR4) 0.1 ug/mL,1.03
CC1(O)CC(c2nc(-c3ccc4ccc(-c5ccccc5)nc4c3)c3c(N)nccn23)C1 (stereo not given) (library stock concentration (final ~1000-fold dilution): 10 mM),IRF Lucia reporter activity,RAW-Dual [1]; [4],0.194
same,IRF Lucia reporter activity,RAW-Dual [1]; agonist: LPS (TLR4) 0.1 ug/mL,0.826
CC1(O)CC(c2nc(-c3ccc4ccc(-c5ccccc5)nc4c3)c3c(N)nccn23)C1 (stereo not given),IRF Lucia reporter activity,RAW-Dual [2]; [5],0.759
CNC(=O)Nc1ccc(-c2nc(N3CC4CCC(C3)O4)c3cnn(C4CCC5(CC4)OCCO5)c3n2)cc1,IRF Lucia reporter activity,RAW-Dual [2]; [5],0.992
CNC(=O)Nc1ccc(-c2nc(N3CC4CCC(C3)O4)c3cnn(C4CCC5(CC4)OCCO5)c3n2)cc1 (library stock concentration (final ~1000-fold dilution): 10 mM),IRF Lucia reporter activity,RAW-Dual [1]; [4],1.01
same,IRF Lucia reporter activity,RAW-Dual [1]; agonist: LPS (TLR4) 0.1 ug/mL,0.646
CC(C)n1c(C=CC(O)CC(O)CC(=O)O)c(-c2ccc(F)cc2)c2ccccc21 (stereo not given),IRF Lucia reporter activity,RAW-Dual [2]; [5],0.762
CC(C)n1c(C=CC(O)CC(O)CC(=O)O)c(-c2ccc(F)cc2)c2ccccc21 (stereo not given) (library stock concentration (final ~1000-fold dilution): 10 mM),IRF Lucia reporter activity,RAW-Dual [1]; [4],0.384
same,IRF Lucia reporter activity,RAW-Dual [1]; agonist: LPS (TLR4) 0.1 ug/mL,0.847
COc1cc(Nc2ncc(F)c(Nc3ccc4c(n3)N(COP(=O)(O)O)C(=O)C(C)(C)O4)n2)cc(OC)c1OC,IRF Lucia reporter activity,RAW-Dual [2]; [5],1.05
COc1cc(Nc2ncc(F)c(Nc3ccc4c(n3)N(COP(=O)(O)O)C(=O)C(C)(C)O4)n2)cc(OC)c1OC (library stock concentration (final ~1000-fold dilution): 10 mM),IRF Lucia reporter activity,RAW-Dual [1]; [4],1.01
same,IRF Lucia reporter activity,RAW-Dual [1]; agonist: LPS (TLR4) 0.1 ug/mL,0.0245
Cn1cc(C=C2C(=O)Nc3cccnc32)c2ccccc21,IRF Lucia reporter activity,RAW-Dual [2]; [5],0.761
Cn1cc(C=C2C(=O)Nc3cccnc32)c2ccccc21 (library stock concentration (final ~1000-fold dilution): 10 mM),IRF Lucia reporter activity,RAW-Dual [1]; [4],0.515
same,IRF Lucia reporter activity,RAW-Dual [1]; agonist: LPS (TLR4) 0.1 ug/mL,0.452
CN1CCN(CCCN2c3ccccc3Sc3ccc(Cl)cc32)CC1.O=C(O)/C=C\C(=O)O.O=C(O)/C=C\C(=O)O (library stock concentration (final ~1000-fold dilution): 10 mM),IRF Lucia reporter activity,RAW-Dual [3]; [4],0.64
same,IRF Lucia reporter activity,RAW-Dual [3]; agonist: LPS (TLR4) 0.1 ug/mL,0.589
CN1CCN(CCCN2c3ccccc3Sc3ccc(Cl)cc32)CC1.O=C(O)/C=C\C(=O)O.O=C(O)/C=C\C(=O)O,IRF Lucia reporter activity,RAW-Dual [2]; [6],0.883
O=c1c2cc(O)c(O)cc2oc2cc(O)c([C@@H]3O[C@H](CO)[C@@H](O)[C@H](O)[C@H]3O)c(O)c12 (library stock concentration (final ~1000-fold dilution): 10 mM),IRF Lucia reporter activity,RAW-Dual [1]; [4],0.991
same,IRF Lucia reporter activity,RAW-Dual [1]; agonist: LPS (TLR4) 0.1 ug/mL,0.946
COc1ccccc1O (library stock concentration (final ~1000-fold dilution): 10 mM),IRF Lucia reporter activity,RAW-Dual [1]; [4],0.882
same,IRF Lucia reporter activity,RAW-Dual [1]; agonist: LPS (TLR4) 0.1 ug/mL,1.09
CNC1C(O)C(OC2C(NC(=O)C(O)CN)CC(N)C(OC3OC(CN)C(O)C(O)C3O)C2O)OCC1(C)O.O=S(=O)(O)O (stereo not given),IRF Lucia reporter activity,"RAW-Dual [2]; library stock concentration (final ~1000-fold dilution): 10 mM water, cytotoxicity flag (confluency mask): not cytotoxic",1.25
CNC1C(O)C(OC2C(NC(=O)C(O)CN)CC(N)C(OC3OC(CN)C(O)C(O)C3O)C2O)OCC1(C)O.O=S(=O)(O)O (stereo not given) (library stock concentration (final ~1000-fold dilution): 10 mM water),IRF Lucia reporter activity,RAW-Dual [1]; [4],1.07
same,IRF Lucia reporter activity,RAW-Dual [1]; agonist: LPS (TLR4) 0.1 ug/mL,1.05
COc1cc(CCC(C)=O)ccc1O (library stock concentration (final ~1000-fold dilution): 10 mM),IRF Lucia reporter activity,RAW-Dual [1]; [4],0.901
same,IRF Lucia reporter activity,RAW-Dual [1]; agonist: LPS (TLR4) 0.1 ug/mL,0.996
O=C1N=C(NCc2cccs2)S/C1=C\c1ccc2ncccc2c1 (library stock concentration (final ~1000-fold dilution): 10 mM),IRF Lucia reporter activity,RAW-Dual [1]; [4],0.427
same,IRF Lucia reporter activity,RAW-Dual [1]; agonist: LPS (TLR4) 0.1 ug/mL,0.318
CC(=O)OC1CC2CCC3C(CCC4(C)C3CC([N+]3(C)CCCCC3)C4OC(C)=O)C2(C)CC1N1CCCCC1 (stereo not given),IRF Lucia reporter activity,RAW-Dual [2]; [5],1.02
CC(=O)OC1CC2CCC3C(CCC4(C)C3CC([N+]3(C)CCCCC3)C4OC(C)=O)C2(C)CC1N1CCCCC1 (stereo not given) (library stock concentration (final ~1000-fold dilution): 10 mM),IRF Lucia reporter activity,RAW-Dual [1]; [4],0.993
same,IRF Lucia reporter activity,RAW-Dual [1]; agonist: LPS (TLR4) 0.1 ug/mL,1.2
